Five molecules from article PMC5571105 can be followed below.

Where a chain is given by its changes, count along the chain named. These are yes or no findings as the source states them, for the method shown. For part of these data: In cells and extracts the contact can be indirect. Some binding calls cover weakened binding; strength is not graded here. For part of these data: Tags and fused reporters may be left off the sequences shown.

In assay [1] the target is T1, OsRR10 (rice) (UniProt Q2QXY3).
T1 sequence: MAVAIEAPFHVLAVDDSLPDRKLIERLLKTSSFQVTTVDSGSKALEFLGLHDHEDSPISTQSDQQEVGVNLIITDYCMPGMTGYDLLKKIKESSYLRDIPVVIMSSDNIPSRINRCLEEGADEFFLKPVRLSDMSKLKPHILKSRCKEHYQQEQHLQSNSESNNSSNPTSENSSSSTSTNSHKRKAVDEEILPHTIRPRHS
Put plainly: two-hybrid; S. cerevisiae AH109; bait in pGBD-C1 (GAL4 binding domain; written as target), prey in pGAD-C1 (GAL4 activation domain; written as binder); serial dilutions spotted on triple drop-out medium with 5 mM 3-AT (HIS3) and quadruple drop-out medium (ADE2), 30 °C; growth on quadruple drop-out shows strong interaction.

The target in assay [2] is T1, OsRR10 (rice). Put plainly: two-hybrid; β-galactosidase filter lift assay (LacZ reporter) of the co-transformed yeast colonies, X-gal as substrate, 30 °C in the dark.
In the next assay the target is T2, nEYFP-OsRR10 (rice) (UniProt Q2QXY3).
T2 sequence: T1 sequence
Put plainly: split reporter; BiFC in onion epidermal peel cells, nEYFP and cEYFP fusions under the 2XCaMV35S promoter co-transformed by particle bombardment; YFP seen by confocal microscopy 12 hours post transfection; repeated three times.

The target of the next assay is T3, OsRR3 (rice) (UniProt Q6K9T0).
T3 sequence: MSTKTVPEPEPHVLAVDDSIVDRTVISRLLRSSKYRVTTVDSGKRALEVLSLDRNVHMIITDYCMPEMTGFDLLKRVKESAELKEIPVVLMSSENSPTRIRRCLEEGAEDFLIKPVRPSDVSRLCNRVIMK
As to the kind of experiment: two-hybrid; S. cerevisiae AH109; bait in pGBD-C1 (GAL4 binding domain; written as target), prey in pGAD-C1 (GAL4 activation domain; written as binder); serial dilutions spotted on triple drop-out medium with 5 mM 3-AT (HIS3) and quadruple drop-out medium (ADE2), 30 °C; growth on quadruple drop-out shows strong interaction.

The target in another assay is T4, OsRR2 (rice) (UniProt Q6YVX7).
T4 sequence: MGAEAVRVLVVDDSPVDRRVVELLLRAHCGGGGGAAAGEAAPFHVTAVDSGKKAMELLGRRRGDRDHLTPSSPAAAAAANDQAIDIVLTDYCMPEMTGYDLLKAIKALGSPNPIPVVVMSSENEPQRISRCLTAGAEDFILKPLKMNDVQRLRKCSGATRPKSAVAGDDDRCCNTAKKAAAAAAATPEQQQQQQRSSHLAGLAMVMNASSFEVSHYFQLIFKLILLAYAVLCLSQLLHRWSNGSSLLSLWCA
The description is as above.

In another assay the target is T5, OsRR9 (rice) (UniProt Q2RAP3).
T5 sequence: T1 sequence with G68A, H155N, T179S
Described as above.

The next assay has as its target T6, cEYFP-OsPRR1 (rice) (UniProt Q689G9).
T6 sequence: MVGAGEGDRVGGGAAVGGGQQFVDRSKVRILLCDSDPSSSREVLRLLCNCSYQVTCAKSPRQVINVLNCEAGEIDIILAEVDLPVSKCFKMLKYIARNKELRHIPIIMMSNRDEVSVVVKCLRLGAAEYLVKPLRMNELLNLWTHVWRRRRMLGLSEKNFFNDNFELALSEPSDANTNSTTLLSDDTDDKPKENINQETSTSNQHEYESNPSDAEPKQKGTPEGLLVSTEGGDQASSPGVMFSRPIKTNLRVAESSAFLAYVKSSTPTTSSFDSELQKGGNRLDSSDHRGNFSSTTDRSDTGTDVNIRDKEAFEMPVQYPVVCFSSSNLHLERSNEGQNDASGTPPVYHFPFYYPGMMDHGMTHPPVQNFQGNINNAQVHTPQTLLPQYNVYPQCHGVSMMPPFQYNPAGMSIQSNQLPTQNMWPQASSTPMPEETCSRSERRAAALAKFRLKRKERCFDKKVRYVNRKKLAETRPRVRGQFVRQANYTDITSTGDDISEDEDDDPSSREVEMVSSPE
Put plainly: split reporter; BiFC in onion epidermal peel cells, nEYFP and cEYFP fusions under the 2XCaMV35S promoter co-transformed by particle bombardment; YFP seen by confocal microscopy 12 hours post transfection; repeated three times.

A further assay concerns the target T7, OsPRR1 (rice) (UniProt Q689G9).
T7 sequence: T6 sequence
Put plainly: two-hybrid; S. cerevisiae AH109; bait in pGBD-C1 (GAL4 binding domain; written as target), prey in pGAD-C1 (GAL4 activation domain; written as binder); serial dilutions spotted on triple drop-out medium with 5 mM 3-AT (HIS3) and quadruple drop-out medium (ADE2), 30 °C; growth on quadruple drop-out shows strong interaction.

B1: OsRR22 (protein, UniProt Q5SML5 1-696)
chain: MLLGALRMEERKGLMGRERDQFPVGMRVLAVDDDPVCLKVLETLLRRCQYHVTSTNQAITALKLLRENRDMFDLVISDVHMPDMDGFKLLELVGLEMDLPVIMLSVNGETKTVMKGITHGACDYLLKPVRIEELRNIWQHVVRRKFGNRERNNLDFSKECNKPQSADTDHGPYQPTCGSSDQNGRSSRKRKELHGEDDDEGDDNDYQENDEPSAAKKPRVVWSVELHRKFVAAVNQLGIDKAVPKRILELMNVEKLTRENVASHLQKYRLYLKRLGAVASQQASIVAAFGGRDPSFLHIGAFEGLQSYQPFAPSAALPSFNPHGLLTRTSAAAAFGLQELAAPSSTIQTSTGNVTVGHCLEENQQANLAQGLTAAIGQPQLQQNWIHQEGNGLSDVFSGSSLTNTLSSTLQRVPSSSLPPQELLECKQAKVSMPPSIRIPPSSSALLERTLGVSTNLGDSSISQQGALPIDGGFSADRLPLHSSFDGAVATKLDTSLAASQREIGQQGKFSVSMLVSPSDNLALAKNAKTGASSSGSTIILPLDTARHSDYLQFGGASNSLQKMDGQKQDHIQSSNIIWSSMPSTQLPSDTQIHNTQNQRLDSGSFNHNIGAHLADQTNASASILPQMKFDTRISEEKMKQKNTYDLGSSKLQGGFNSSGCNFDGLLNSIIKVEKDDLPFMDNELGCDLFPLGACI
With B1, the binding result with OsRR10 (rice) [1] and with OsRR10 (rice) [2] was “binds” throughout.

B2: OsRR22 (BiFC fusion) (protein, UniProt Q5SML5 1-696)
chain: B1 chain
Consider B2, for which the binding entry with nEYFP-OsRR10 (rice) was “binds”.

B3: OsRR23 (protein, UniProt Q6K8X6 1-688)
chain: MRAAEERKGVVPAARRRDQFPVGMRVLAVDDDPVCLKVLETLLLRCQYHVTTTNQAAIALKMLRENRDMFDLVISDVHMPDMDGFKLLELVGLEMDLPVIMLSVNGETKTVLKGITHGACDYLLKPVRIEELRNIWQHVIRRKFSTRDRANLDFYEECNKPPNADSDHVHGHVTCGSPDQSGRPSKKRKEYCSEEEDEGEVNTQDIDDPSAPKKPRVVWSVELHRKFVAAVNQLGIDKAVPKRILELMNVEKLTRENVASHLQKYRLYLKRLSAVASQQVSIVAALGGRDPFLHMGGFEGLQGYQAFTSSAALSSFTPHGLLNSPRNNPAALGTQGVPASKSIQTMSGSHTLSHSINDANKYHLSLPGNQKGNLGQGLATSLGQTQMQQKWIHEETDDLSTILSGNGLSNGMSGTLQSVTSSPLLPQELAECTQAKIVSQPSIRTSSVSSEHIEGAVGVSSGLLESRVSQQSTIPLSGFSANGLLIHGSFNNTCANKLGGTSSSCAPARSSNDLMVARDTKGGASSFGGAMLLPPDTEQKYLNFGGGNGLKQKFDDRTADSLFDLKFVWSSVPSSQLASNIGAHHAMSQRWNNSSSNSSNIGARMIGQATSSGSTVIPQMKTDFLVSGDMAMPKNASDLSIPKLQSELSSSSCSFDGLLNSIVKVEKDDVTFSDDLGCGDFYSLGACI
Consider B3, for which the binding result with OsRR3 (rice), with OsRR10 (rice) [1], with OsRR2 (rice) and with OsRR9 (rice) was “no binding” in each case.

B4: nYFP-OsPRR37 (protein, UniProt Q0D3B6 1-742)
chain: MMGTAHHNQTAGSALGVGVGDANDAVPGAGGGGYSDPDGGPISGVQRPPQVCWERFIQKKTIKVLLVDSDDSTRQVVSALLRHCMYEVIPAENGQQAWTYLEDMQNSIDLVLTEVVMPGVSGISLLSRIMNHNICKNIPVIMMSSNDAMGTVFKCLSKGAVDFLVKPIRKNELKNLWQHVWRRCHSSSGSGSESGIQTQKCAKSKSGDESNNNNGSNDDDDDDGVIMGLNARDGSDNGSGTQAQSSWTKRAVEIDSPQAMSPDQLADPPDSTCAQVIHLKSDICSNRWLPCTSNKNSKKQKETNDDFKGKDLEIGSPRNLNTAYQSSPNERSIKPTDRRNEYPLQNNSKEAAMENLEESSVRAADLIGSMAKNMDAQQAARAANAPNCSSKVPEGKDKNRDNIMPSLELSLKRSRSTGDGANAIQEEQRNVLRRSDLSAFTRYHTPVASNQGGTGFMGSCSLHDNSSEAMKTDSAYNMKSNSDAAPIKQGSNGSSNNNDMGSTTKNVVTKPSTNKERVMSPSAVKANGHTSAFHPAQHWTSPANTTGKEKTDEVANNAAKRAQPGEVQSNLVQHPRPILHYVHFDVSRENGGSGAPQCGSSNVFDPPVEGHAANYGVNGSNSGSNNGSNGQNGSTTAVNAERPNMEIANGTINKSGPGGGNGSGSGSGNDMYLKRFTQREHRVAAVIKFRQKRKERNFGKKVRYQSRKRLAEQRPRVRGQFVRQAVQDQQQQGGGREAAADR
With B4, the binding result with cEYFP-OsPRR1 (rice) was “binds”.

B5: OsPRR73 (protein, UniProt Q10N34 1-767)
chain: MGSACEAGTDEPSRDDVKGTGNGILENGHSHKPEEEEWRNGMGEDLPNGHSTPPEPQQTDEQKEHQVQIVRWERFLPVKTLRVLLVENDDSTRQVVSALLRKCCYEVIPAENGLHAWQCLEDLQNHIDLVLTEVVMPRLSGIGLLSKITSHKICKDIPVIMMSSNDSMGTVFKCLSKGAVDFLVKPIRKNELKNLWQHVWRRCHSSSGSGSESGIRTQKCTKPKVDDEYENNSGSNNDNEDDDDNDEDDDDLSVGHNARDGSDNGSGTQSSWTKRAVEIDSPQQMSPDQPSDLPDSTCAQVIHPTSEICSNRWLPTANKRSGKKHKENNDDSMGKYLEIGAPRNSSMEYQSSPREMSVNPTEKQHETLMPQSKTTRETDSRNTQNEPTTQTVDLISSIARSTDDKQVVRINNAPDCSSKVPDGNDKNRDSLIDMTSEELGLKRLKTTGSATEIHDERNILKRSDLSAFTRYHTTVASNQGGAGFGGSCSPQDNSSEALKTDSNCKVKSNSDAAEIKQGSNGSSNNNDMGSSTKNAITKPSSNRGKVISPSAVKATQHTSAFHPVQRQTSPANVVGKDKVDEGIANGVNVGHPVDVQNSFMQHHHHVHYYVHVMTQQQQQPSIERGSSDAQCGSSNVFDPPIEGHAANYSVNGSFSGGHNGNNGQRGPSTAPNVGRPNMETVNGIVDENGAGGGNGSGSGSGNDLYQNGVCYREAALNKFRQKRKVRNFGKKVRYQSRKRLAEQRPRIRGQFVRQSGQEDQAGQDEDR
Regarding B5, the binding result with OsPRR1 (rice) is recorded as “no binding”.
